# This is one part of the list.
# B1: SP8524D-bot-399-27-399 (Bacteroides ovatus) (protein)
# chain: DAKYDTLDTHAYIEEALSSTSQKVTVQATGESFTTLNVHLSNLSSTDNHYKLVTDQSVLDTYNHINGTGYIMLPKDYYTLPETITVKAGQYAADALSIALKAFSQEMMKSGESYALPVKLVLQDGSISPMENTGTFVILAESIIEFSAPMFVGAPSLKANKFTESPETYSQYTIEVRFQVANTADRDRAVFKNGGDDANFILLRFEDPQSDNENYKAHSLVQIVGRNRLYLNPSNSFKPNEWQHLALVCDGSNYRLYINGVDSGVLSIPTGATTFSDVNWFCLGDDSYSRWGNCKILMSEARIWSVVRSASQIQNNMTQVSPKSVGLEAYWRFNEGQGNVFEDATGKGHTLTTSATPTWIDGILSTDKSTEWK
# Experiments:
# Test in all cases: glycan array binding signal (z-score within array); higher = stronger binding
# Details in all cases: glycan notation: IUPAC condensed, linker removed
# [1] = target: Neu5Ac(a2-6)Gal(b1-4)GlcNAc(b1-2)Man(a1-3)[Man(a1-6)]Man(b1-4)GlcNAc(b1-4)GlcNAc
# Method in brief: (§1)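 Negative Z-scores can be read as non-binding. The Z-score is calculated within each array and then averaged across arrays of one protein sequence at different concentrations or buffers and across linkers. Arrays, 3228 in all, were curated from the Consortium for Functional Glycomics database and kept only where the protein sequence was available.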
# [2] = target: Neu5Ac(a2-6)Gal(b1-4)GlcNAc(b1-2)Man(a1-3)[Neu5Ac(a2-3)Gal(b1-4)GlcNAc(b1-2)Man(a1-6)]Man(b1-4)GlcNAc(b1-4)GlcNAc
# Method in brief: as §1
# [3] = target: Neu5Ac(a2-6)Gal(b1-4)GlcNAc(b1-2)Man(a1-3)[Neu5Ac(a2-6)Gal(b1-4)GlcNAc(b1-2)Man(a1-6)]Man(b1-4)GlcNAc(b1-4)GlcNAc
# Method in brief: as §1
# [4] = target: Neu5Ac(a2-6)Gal(b1-4)GlcNAc(b1-2)Man(a1-3)[Neu5Ac(a2-6)Gal(b1-4)GlcNAc(b1-2)Man(a1-6)]Man(b1-4)GlcNAc(b1-4)[Fuc(a1-6)]GlcNAc
# Method in brief: as §1
# [5] = target: Neu5Ac(a2-6)Gal(b1-4)GlcNAc(b1-2)Man(a1-6)Man(b1-4)GlcNAc(b1-4)GlcNAc
# Method in brief: as §1
# [6] = target: Neu5Ac(a2-6)Gal(b1-4)GlcNAc(b1-2)Man(a1-6)[Gal(b1-4)GlcNAc(b1-2)Man(a1-3)]Man(b1-4)GlcNAc(b1-4)GlcNAc
# Method in brief: as §1
# [7] = target: Neu5Ac(a2-6)Gal(b1-4)GlcNAc(b1-2)Man(a1-6)[GlcNAc(b1-2)Man(a1-3)]Man(b1-4)GlcNAc(b1-4)GlcNAc
# Method in brief: as §1
# [8] = target: Neu5Ac(a2-6)Gal(b1-4)GlcNAc(b1-2)Man(a1-6)[Man(a1-3)]Man(b1-4)GlcNAc(b1-4)GlcNAc
# Method in brief: as §1
# [9] = target: Neu5Ac(a2-6)Gal(b1-4)GlcNAc(b1-2)[Neu5Ac(a2-6)Gal(b1-4)GlcNAc(b1-4)]Man(a1-3)[GlcNAc(b1-4)][Neu5Ac(a2-6)Gal(b1-4)GlcNAc(b1-2)[Neu5Ac(a2-6)Gal(b1-4)GlcNAc(b1-6)]Man(a1-6)]Man(b1-4)GlcNAc(b1-4)GlcNAc
# Method in brief: as §1
# [10] = target: Neu5Ac(a2-6)Gal(b1-4)GlcNAc(b1-2)[Neu5Ac(a2-6)Gal(b1-4)GlcNAc(b1-4)]Man(a1-3)[GlcNAc(b1-4)][Neu5Ac(a2-6)Gal(b1-4)GlcNAc(b1-4)Man(a1-6)]Man(b1-4)GlcNAc(b1-4)GlcNAc
# Method in brief: as §1
# [11] = target: Neu5Ac(a2-6)Gal(b1-4)GlcNAc(b1-2)[Neu5Ac(a2-6)Gal(b1-4)GlcNAc(b1-6)]Man(a1-6)[Neu5Ac(a2-6)Gal(b1-4)GlcNAc(b1-2)Man(a1-3)][GlcNAc(b1-4)]Man(b1-4)GlcNAc(b1-4)GlcNAc
# Method in brief: as §1
# [12] = target: Neu5Ac(a2-6)Gal(b1-4)GlcNAc(b1-3)Gal(b1-3)GlcNAc
# Method in brief: as §1
# [13] = target: Neu5Ac(a2-6)Gal(b1-4)GlcNAc(b1-3)Gal(b1-4)GlcNAc
# Method in brief: as §1
# [14] = target: Neu5Ac(a2-6)Gal(b1-4)GlcNAc(b1-3)Gal(b1-4)GlcNAc(b1-2)Man(a1-3)[Neu5Ac(a2-6)Gal(b1-4)GlcNAc(b1-3)Gal(b1-4)GlcNAc(b1-2)Man(a1-6)]GalNAc
# Method in brief: as §1
# [15] = target: Neu5Ac(a2-6)Gal(b1-4)GlcNAc(b1-3)Gal(b1-4)GlcNAc(b1-3)Gal(b1-4)GlcNAc
# Method in brief: as §1
# [16] = target: Neu5Ac(a2-6)Gal(b1-4)GlcNAc(b1-3)Gal(b1-4)GlcNAc(b1-3)Gal(b1-4)GlcNAc(b1-2)Man(a1-3)[Neu5Ac(a2-6)Gal(b1-4)GlcNAc(b1-3)Gal(b1-4)GlcNAc(b1-3)Gal(b1-4)GlcNAc(b1-2)Man(a1-6)]GalNAc
# Method in brief: as §1
# [17] = target: Neu5Ac(a2-6)Gal(b1-4)GlcNAc(b1-3)Gal(b1-4)GlcNAc(b1-3)GalNAc
# Method in brief: as §1
# [18] = target: Neu5Ac(a2-6)Gal(b1-4)GlcNAc(b1-3)Gal(b1-4)GlcNAc(b1-3)[Neu5Ac(a2-6)Gal(b1-4)GlcNAc(b1-3)Gal(b1-4)GlcNAc(b1-6)]GalNAc
# Method in brief: as §1
# [19] = target: Neu5Ac(a2-6)Gal(b1-4)GlcNAc(b1-3)Gal(b1-4)GlcNAc(b1-6)[Gal(b1-3)]GalNAc
# Method in brief: as §1
# [20] = target: Neu5Ac(a2-6)Gal(b1-4)GlcNAc(b1-3)Gal(b1-4)[Fuc(a1-3)]GlcNAc(b1-3)Gal(b1-4)[Fuc(a1-3)]GlcNAc
# Method in brief: as §1
# [21] = target: Neu5Ac(a2-6)Gal(b1-4)GlcNAc(b1-3)GalNAc
# Method in brief: as §1
# [22] = target: Neu5Ac(a2-6)Gal(b1-4)GlcNAc(b1-3)[Neu5Ac(a2-6)Gal(b1-4)GlcNAc(b1-6)]GalNAc
# Method in brief: as §1
# [23] = target: Neu5Ac(a2-6)Gal(b1-4)GlcNAc(b1-6)GalNAc
# Method in brief: as §1
# [24] = target: Neu5Ac(a2-6)Gal(b1-4)GlcNAc(b1-6)[Gal(b1-3)GlcNAc(b1-3)]Gal(b1-4)Glc
# Method in brief: as §1
# [25] = target: Neu5Ac(a2-6)Gal(b1-4)GlcNAc(b1-6)[Gal(b1-3)]GalNAc
# Method in brief: as §1
# [26] = target: Neu5Ac(a2-6)Gal(b1-4)GlcNAc6S
# Method in brief: as §1
# Neu5Ac(a2-6)GalNAc = target: Neu5Ac(a2-6)GalNAc
# Method in brief: as §1
# [27] = target: Neu5Ac(a2-6)GalNAc(b1-4)GlcNAc
# Method in brief: as §1
# [28] = target: Neu5Ac(a2-6)GalNAc(b1-4)GlcNAc6S
# Method in brief: as §1
# [29] = target: Neu5Ac(a2-6)GlcNAc(b1-4)GlcNAc
# Method in brief: as §1
# [30] = target: Neu5Ac(a2-6)GlcNAc(b1-4)GlcNAc(b1-4)GlcNAc
# Method in brief: as §1
binder,measurement,setting,value
B1,glycan array binding signal (z-score),[1],-0.158
same,glycan array binding signal (z-score),[2],-0.148
same,glycan array binding signal (z-score),[3],-0.165
same,glycan array binding signal (z-score),[4],0.024
same,glycan array binding signal (z-score),[5],-0.38
same,glycan array binding signal (z-score),[6],-0.328
same,glycan array binding signal (z-score),[7],-0.183
same,glycan array binding signal (z-score),[8],0.215
same,glycan array binding signal (z-score),[9],-0.68
same,glycan array binding signal (z-score),[10],0.44
same,glycan array binding signal (z-score),[11],-0.281
same,glycan array binding signal (z-score),[12],-0.197
same,glycan array binding signal (z-score),[13],-0.179
same,glycan array binding signal (z-score),[14],0.437
same,glycan array binding signal (z-score),[15],-0.075
same,glycan array binding signal (z-score),[16],0.088
same,glycan array binding signal (z-score),[17],-0.398
same,glycan array binding signal (z-score),[18],-0.021
same,glycan array binding signal (z-score),[19],-0.586
same,glycan array binding signal (z-score),[20],-0.049
same,glycan array binding signal (z-score),[21],-0.138
same,glycan array binding signal (z-score),[22],-0.217
same,glycan array binding signal (z-score),[23],-0.332
same,glycan array binding signal (z-score),[24],-0.38
same,glycan array binding signal (z-score),[25],0.19
same,glycan array binding signal (z-score),[26],-0.415
same,glycan array binding signal (z-score),Neu5Ac(a2-6)GalNAc,-0.205
same,glycan array binding signal (z-score),[27],-0.221
same,glycan array binding signal (z-score),[28],-0.172
same,glycan array binding signal (z-score),[29],0.417
same,glycan array binding signal (z-score),[30],-0.544

# Reference: the supplement of paper PMC8728848
